Experimental data: patent US20240360076A1, “NONIONIC SURFACTANTS” (priority 2023, published 2024)

Description: DS 13 was subject to accelerated stability conditions (40° C.) with lyophilized material for one and two months (FIG. 5B). At each time point, material was dissolved in water and analyzed by HPLC.

Compound: CCCCCCCCCCC(=O)N(CCOCCOCCOCCOC)CCOCCOCCOCCOC [DS13]
- corresponding stability at room temperature: 4 months
